FireProtDB (doi:10.1021/bi0507940)
“And” between values parts separate entries of the source, which are not always exact repeats. Equal values may be shown once.

Details: Homo sapiens; pH 7.4; Thermal; DSC; Phosphate 7 mM; reversible: yes

In the case of Insulin wild type (chain not printed), the “unfolding enthalpy (calorimetric)” value is reported as 22.7 kcal/mol and 24 kcal/mol and 34.5 kcal/mol and the “unfolding enthalpy (van 't Hoff)” value is reported as 49.4 kcal/mol and 49.5 kcal/mol.
